# Assay results from PubChem BioAssay AID588855 (National Center for Advancing Translational Sciences (NCATS), 2011).
# About 5,000 (1.2%) of roughly 410,000 compounds were called active. The inconclusive results got no clear call from the source; some entries with a clear call stand among them for comparison. Calls come from the whole dose curve; as a rule, active = well fitted inhibition curve with a large enough effect; inconclusive = small, poorly fitted or top-dose-only effect; inactive = no such curve, though single readings can be large or run the other way. Where the call is inconclusive, the potency comes from a doubtful curve fit.
# Assay: qHTS for Inhibitors of TGF-b; note: nearly all actives have a fitted effect of over 65% in size
# Conditions: HepG2 CAGA-GFP TGF-b/SMAD3 reporter, GFP fluorescence, 18 h, TGF-beta stimulated, 500 pg/mL final; series mostly up to 46.1 µM; activity, negative = inhibition: at the top concentration
# Procedure, shortened: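 Inhibition was scored as loss of TGF-beta-induced (500 pg/mL final, 18 hours, 37 degrees C) GFP in HEPG2 cells carrying a CAGA-GFP reporter, in DMEM with 1% FBS. Well GFP was summed per cell; Activity was normalised to unstimulated and stimulated DMSO wells, then concentration-response fitting.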
# % is set by controls: 0 for no effect and ±100 for the full control effect; potency is the fitted concentration of half-maximal effect; tags give direction and shape of the fitted curve.
SMILES,"activity, negative = inhibition",Potency
O=C(CSc1nc(C(F)(F)F)cc(=O)[nH]1)NCc1ccc2c(c1)OCO2,inactive: 0%,–
CN(C)c1ccccc1C(=O)N1CCCC(C(=O)c2ccc3ccccc3c2)C1 (stereo not drawn),–,"inconclusive: 20 µM [inhibitor, single point]"
CN(CC(=O)Nc1ccccc1Cl)C(=O)COC(=O)c1ccc([N+](=O)[O-])s1,–,"inconclusive: 25.1 µM [inhibitor, single point]"
O=c1cc(CN2CCN(c3cccc(Cl)c3)CC2)c2cc(O)c(-c3ccccc3)cc2o1,inactive: 0%,–
O=C(C(=O)N1CCCC1)c1c(-c2ccccc2)[nH]c2ccccc12,–,"inconclusive: 35.5 µM [inhibitor, single point]"
COc1ccc(NC(=O)CCc2c(C)nc3c(c2C)c(=O)n(C)c(=O)n3C)cc1OC,inactive: -5.45%,–
CC(C)CC1C(=O)N(Cc2cn(CC3CCCCC3)nn2)CCS(=O)(=O)N1Cc1ccc(-c2cccc(CO)c2)cc1 (stereo not drawn),–,"inconclusive: 3.55 µM [inhibitor, single point]"
COc1ccc(NC(=O)CSc2nc(-c3cccs3)cc(C(F)(F)F)c2C#N)cc1,–,"inconclusive: 1 µM [inhibitor, full curve, poor fit]"
Nc1nc(SCC(=O)Nc2cccc(Oc3ccccc3)c2)n[nH]1,inactive: -28.6%,–
S=c1[nH]nc(-c2cc(-c3ccco3)[nH]n2)n1-c1cccc2ccccc12,–,"inconclusive: 17.8 µM [inhibitor, single point]"
COc1ccc(C(c2nnnn2-c2ccc(OC)cc2)N2CCN(C/C=C/c3ccccc3)CC2)cc1 (stereo not drawn),–,"inconclusive: 35.5 µM [inhibitor, single point]"
Cc1ccc(C)c(CN2C(=O)C(C)Oc3ccc(C)cc32)c1 (stereo not drawn),–,"inconclusive: 6.31 µM [inhibitor, single point]"
CCOC(=O)N1CCc2c(sc(NCc3ccc(N(C)C)cc3)c2C(=O)Nc2ccc(OC)cc2)C1,–,"inconclusive: 14.1 µM [inhibitor, partial curve, poor fit]"
CSCCC1NC(=O)C(C(C)=Nc2ccccc2)=C1O (stereo not drawn),–,"inconclusive: 6.31 µM [inhibitor, single point]"
CCCOC(c1ccccc1)(c1ccc(C(F)(F)F)cc1)C(Oc1nc(C)cc(C)n1)C(=O)O (stereo not drawn),–,"inconclusive: 31.6 µM [inhibitor, single point]"
CSc1nnc(-c2sc3cc(C(F)(F)F)cnc3c2-c2cccnc2)n1C,inactive: -2.44%,–
CCOc1cc(CNC(=O)c2ccc3c(c2)N(C)C(=O)C2CCCCN32)cc(OCC)c1OCC (stereo not drawn),inactive: 0.475%,–
CC1CCCC(NC(=S)NC(=O)c2ccccc2Br)C1C (stereo not drawn),–,"inconclusive: 11.2 µM [inhibitor, partial curve, poor fit]"
COc1ccc2c(c1OC)C(=O)N1c3ccccc3C(=O)N(Cc3ccco3)C21 (stereo not drawn),–,"inconclusive: 31.6 µM [inhibitor, single point]"
CCCc1cc(CN2CCOCC2)c(O)c(CN2CCOCC2)c1O,–,"inconclusive: 35.5 µM [inhibitor, single point]"
CCOc1ccc(NC(=O)c2ccc(N3CC4CC(C3)c3cccc(=O)n3C4)c(NC(=O)c3cccnc3)c2)cc1 (stereo not drawn),inactive: -0.358%,–

SMILES,"activity, negative = inhibition",Potency
NNC(=S)NC1CC2CC1C1C=CCC21 (stereo not drawn),–,"inconclusive: 4.47 µM [inhibitor, full curve, poor fit]"
COc1cccc(C(=O)C2CCCN(Cc3cccc(-n4nc(C)cc4C)c3)C2)c1 (stereo not drawn),–,"inconclusive: 2 µM [inhibitor, full curve, poor fit]"
O=C(C1CCN(S(=O)(=O)c2cccc3nonc23)CC1)N1CCN(c2ccccc2F)CC1,–,"inconclusive: 22.4 µM [inhibitor, single point]"
Cc1nc(NN)c2c3c(sc2n1)COC(C)(C)C3,–,"inconclusive: 17.8 µM [inhibitor, single point]"
Cc1cccc(C)c1NC(=O)CN(C)C(=O)c1cccc(S(=O)(=O)N2CCN(C)CC2)c1,inactive: -13.1%,–
CCN(CC)c1cc(C)c(/C=C/c2ccnc3ccccc23)cc1C,inactive: -28.2%,–
COc1ccc(NC(=O)Cn2c(C)cc(=O)c3ccccc32)cc1,–,"inconclusive: 28.2 µM [inhibitor, single point]"
Oc1ccc(Cl)cc1Nc1nc(NCC2CCCO2)c2ccccc2n1 (stereo not drawn),–,"inconclusive: 12.6 µM [inhibitor, partial curve, poor fit]"
COc1cc(CCC(=O)Nc2ccc(C)c(S(=O)(=O)N3CCCCCC3)c2)cc(OC)c1OC,–,"inconclusive: 25.1 µM [inhibitor, partial curve, poor fit]"
O=C(O)CC1C(=O)OCN1C(=O)OCc1ccccc1 (stereo not drawn),–,"inconclusive: 22.4 µM [inhibitor, single point]"
Cc1cc(NC(=O)NCc2ccc3c(c2)CCN3C(=O)c2ccccc2)ccc1Br,–,"inconclusive: 2.82 µM [inhibitor, partial curve, poor fit]"
Cc1cc(=O)n2nc(N3CCC(C(=O)NCc4ccccc4)CC3)sc2n1,–,"inconclusive: 0.112 µM [inhibitor, full curve, poor fit]"
N#Cc1nc(-c2ccco2)oc1N1CCC(Cc2ccccc2)CC1,–,"inconclusive: 6.31 µM [inhibitor, full curve, poor fit]"
CCCCCCCCC[n+]1cccc2c3ccccc3ccc21,–,active: 1.78 µM
COc1cccc(N2[C@@H](CC(C)=O)c3ccc(/C=C/C(C)=O)cc3S2(=O)=O)c1,–,active: 15.8 µM
CCCC(=O)O[C@]1(C(=O)CO)CC[C@H]2[C@@H]3CCC4=CC(=O)CC[C@]4(C)[C@H]3[C@@H](O)C[C@@]21C,inactive: -15.4%,–
O=C(c1ccc(C(=O)N2CCCc3ccccc32)s1)N1CCCc2ccccc21,–,"inconclusive: 35.5 µM [inhibitor, single point]"
CCC(C(=O)OC)n1cnc2c(cnn2-c2ccc(F)cc2)c1=O (stereo not drawn),–,"inconclusive: 11.2 µM [inhibitor, partial curve, poor fit]"
CCC(C)n1c(=O)c(C(=O)Nc2ccccc2S(N)(=O)=O)c(O)c2ccccc21 (stereo not drawn),–,"inconclusive: 12.6 µM [inhibitor, single point]"
NNc1nc2cc3c(cc2s1)OCCO3,–,"inconclusive: 6.31 µM [inhibitor, partial curve, poor fit]"
COc1cc(Cl)c(C)cc1NC(=O)Cn1ncc2c(=O)oc3ccccc3c21,inactive: -4.04%,–

SMILES,"activity, negative = inhibition",Potency
S=C(NNC(=S)NC1CC2C=CC1C2)NC1CC2C=CC1C2 (stereo not drawn),–,"inconclusive: 6.31 µM [inhibitor, partial curve, poor fit]"
O=C(Nc1nnc(-c2ccco2)o1)c1ccc(S(=O)(=O)N2CCOCC2)cc1,–,"inconclusive: 35.5 µM [inhibitor, single point]"
CCN(CC)S(=O)(=O)c1nnc(NC(=O)c2ccccc2Cl)s1,–,"inconclusive: 8.91 µM [inhibitor, partial curve]"
CC(C)CNc1nc(NC(C)(C)C)nc(Oc2ccc(=O)n(-c3ccccc3)n2)n1,–,"inconclusive: 35.5 µM [inhibitor, single point]"
O=C(CCc1ccc(S(=O)(=O)N2CCOCC2)cc1)Nc1nc(COc2ccccc2)cs1,inactive: -21.1%,–
Cc1sc2ncnc(N3CCC(C(=O)NCC(=O)Nc4ccc(F)c(F)c4)CC3)c2c1C,–,"inconclusive: 35.5 µM [inhibitor, single point]"
O=C(CCNC(=O)c1ccc(Cl)cc1)Nc1ccncc1,–,"inconclusive: 2 µM [inhibitor, partial curve, poor fit]"
O=C(NNC(=O)C1CCN(Cc2cccc(F)c2)CC1)c1cccc(Cl)c1,inactive: 1.21%,–
COc1ccc(OC)c(CN2CCN(C(=O)c3ccc(S(=O)(=O)N4CCCCCC4)cc3)CC2)c1,inactive: -3.13%,–
CCC1C(=NO)C(CC)C(c2ccccc2)NC1c1ccccc1 (stereo not drawn),–,"inconclusive: 25.1 µM [inhibitor, single point]"
Cc1ccc(NC(=O)CN2CCCC2c2cccn2C)c(Br)c1 (stereo not drawn),–,"inconclusive: 22.4 µM [inhibitor, single point]"
Oc1c(Br)cc(Br)cc1/C=N/c1nccs1,–,"inconclusive: 35.5 µM [inhibitor, single point]"
C=CCOc1c(Cl)cc(CNc2ccc(N(C)C)cc2)cc1OC,–,"inconclusive: 7.08 µM [inhibitor, partial curve, poor fit]"
[O-][n+]1c2c(c3c4non(O)c4ccc31)CCCC2,–,"inconclusive: 35.5 µM [inhibitor, single point]"
COc1cc(C(=O)Oc2ccccc2/C=N/NC(=O)c2ccc(C)c(Cl)c2)cc(OC)c1OC,–,"inconclusive: 3.55 µM [inhibitor, full curve]"
COc1ccc(C(=O)NC(=C(Cl)Cl)S(=O)(=O)c2ccc(C)cc2)cc1,–,"inconclusive: 12.6 µM [inhibitor, partial curve]"
Cc1ccc2ncc(C(=O)NCCc3ccc(S(N)(=O)=O)cc3)c(=O)n2c1,–,"inconclusive: 35.5 µM [inhibitor, single point]"
Cc1ccc(C(C(=O)NC2CCCC2)N(Cc2cccnc2)C(=O)c2snc(C(N)=O)c2N)o1 (stereo not drawn),–,"inconclusive: 35.5 µM [inhibitor, single point]"
O=C(COc1ccc2ccccc2c1)Nc1cccc(C(=O)Nc2ccccc2C(=O)O)c1,–,"inconclusive: 35.5 µM [inhibitor, single point]"
COc1ccc(-n2c(SCCNCCO)nc3sc4c(c3c2=O)CCCC4)cc1,–,"inconclusive: 15.8 µM [inhibitor, single point]"
Cc1ccc(N(C)C(=O)Cn2cnc3onc(-c4ccc(F)cc4)c3c2=O)cc1C,–,"inconclusive: 22.4 µM [inhibitor, single point]"
